Results on 60 compounds are retold here after the supplement of paper PMC10723795.

This test deals with RPE1. The test can be described thus: nucleolar normality score relative to DMSO (fraction of DMSO control); RPE1 is a non-cancer human cell line; higher = more normal nucleoli (less nucleolar stress). The conditions noted are these: 24 h.

The structures appear in SMILES notation. Structures can show the parent of a compound that is named as a salt. The list shows a part of the results.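 How the source made its calls: active = more than 2 SD below the DMSO mean: under 0.85 at 10 µM or 0.885 at 1 µM; inactive = the rest.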 Single values are uncertain, as repeats are few or missing.
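Further: fixed cells immunolabelled for nucleolin and UBF, 40 image fields per well in 384-well plates, per-cell score = nucleolin nucleolar/nucleoplasm intensity ratio divided by the matching UBF ratio.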

`Nc1nc2cc(-c3ccc4ncc(C(=O)N5CCOCC5)n4c3)ccc2o1` [Serabelisib (INK-1117,MLN-1117,TAK-117)]: the nucleolar normality score was inactive: 0.979 (1 µM) and inactive: 0.995 (10 µM).

Take `COc1c(N2C[C@@H]3CCCN[C@@H]3C2)c(F)cc2c(=O)c(C(=O)O)cn(C3CC3)c12` [Moxifloxacin]: the nucleolar normality score reads like this: (1 µM) inactive: 1.01; (10 µM) inactive: 1.

Consider `NCCCC[C@@H]1NC(=O)[C@@H](Cc2ccccc2)NC(=O)[C@H](CC(=O)O)NC(=O)CNC(=O)[C@H](CCCN=C(N)N)NC1=O` [Cyclo (-RGDfK)], for which the nucleolar normality score was inactive: 1.02 (1 µM) and inactive: 1.03 (10 µM).

As for `c1cc(-c2cnn3cc(-c4ccc(N5CCNCC5)cc4)cnc23)c2cccnc2c1`, the nucleolar normality score reads like this: (1 µM) inactive: 0.947; (10 µM) inactive: 1.09.

Take `Cc1n[nH]c2ncc(C(=O)N3CCC[C@H]3c3ccc(Cl)cc3)cc12`: the nucleolar normality score (1 µM) was inactive: 1.06 and the nucleolar normality score (10 µM) is inactive: 1.04.

For the compound `C=C1CC2(O)OC3(CC2C(C)C)C(C)CCC13` (stereo not given) [Curcumol], the nucleolar normality score was inactive: 1.02 (1 µM) and inactive: 0.888 (10 µM).

`Cn1c(=O)cc(C(=O)Nc2ccc3c(c2)OCCO3)c2ccccc21`: the nucleolar normality score by setting is: (1 µM) inactive: 0.994; (10 µM) inactive: 1.04.

As for `CNC(=O)c1ccccc1Nc1nc(Nc2ccc(N3CCOCC3)cc2OC)ncc1Cl`, the nucleolar normality score reads like this: (1 µM) inactive: 1.08; (10 µM) inactive: 1.08.

`CC1=C(C(=O)Nc2cc3cn[nH]c3cc2F)C(c2ccc(C(F)(F)F)cc2)CC(=O)N1` (stereo not given): the nucleolar normality score is inactive: 1 (1 µM) and inactive: 1.05 (10 µM).

Consider `O=NN(CCCl)C(=O)NCCCl` [Carmustine], for which the nucleolar normality score runs as follows: (1 µM) inactive: 0.932; (10 µM) inactive: 0.983.

For the compound `CC(=O)c1cc2c(o1)C(=O)c1ccccc1C2=O` [Napabucasin], the nucleolar normality score reads like this: (1 µM) active: 0.466; (10 µM) active: 0.373.

Take `O=c1oc2c(O)c(O)cc3c(=O)oc4c(O)c(O)cc1c4c23` [Ellagic acid]: the nucleolar normality score is inactive: 1.05 (1 µM) and inactive: 1.12 (10 µM).

Take `CNC(=O)c1ccccc1Nc1cc(Nc2ccc(N3CCOCC3)cc2OC)ncc1C(F)(F)F`: the nucleolar normality score by setting is: (1 µM) inactive: 0.913; (10 µM) inactive: 1.02.

As to `CNC(=O)c1cc(Oc2ccc(NC(=O)Nc3ccc(Cl)c(C(F)(F)F)c3)cc2)ccn1` [Sorafenib Tosylate], the nucleolar normality score is, setting by setting: (1 µM) inactive: 1.07; (10 µM) inactive: 1.12.

On to `COc1cccc2c1C(=O)c1c(O)c3c(c(O)c1C2=O)C[C@@](O)(C(C)=O)C[C@@H]3O[C@H]1C[C@H](N)[C@H](O)[C@H](C)O1` [Daunorubicin HCl], for which the nucleolar normality score was active: 0.235 (1 µM) and active: 0.403 (10 µM).

As for `Cc1ccc(S(=O)(=O)Cc2nc(-c3ccc(C(=O)NCc4cccnc4)cc3)oc2C)cc1`, the nucleolar normality score (1 µM) is inactive: 1.02 and the nucleolar normality score (10 µM) was inactive: 1.02.

On to `CC/C(=C(\c1ccc(O)cc1)c1ccc(OCCNC)cc1)c1ccccc1` [Endoxifen HCl], for which the nucleolar normality score was inactive: 0.988 (1 µM) and inactive: 1.04 (10 µM).

For `C=C1CC[C@@H]2[C@](C)(CO)[C@H](O)CC[C@@]2(C)[C@@H]1C/C=C1/C(=O)OC[C@H]1O` [Andrographolide], the nucleolar normality score (1 µM) is inactive: 1.06 and the nucleolar normality score (10 µM) is inactive: 1.15.

With `Cc1ncc(-c2ccnc(Nc3ccc(S(C)(=O)=O)cc3)n2)n1C(C)C`, the nucleolar normality score is, setting by setting: (1 µM) inactive: 1.07; (10 µM) inactive: 0.885.

As for `Cc1ccc2nc(CN(CCN(Cc3nc4ccc(C)cc4[nH]3)Cc3nc4ccc(C)cc4[nH]3)Cc3nc4ccc(C)cc4[nH]3)[nH]c2c1`, the nucleolar normality score reads like this: (1 µM) inactive: 0.963; (10 µM) inactive: 0.936.

For the compound `N#CCNC(=O)c1ccc(-c2ccnc(Nc3ccc(N4CCOCC4)cc3)n2)cc1` [Momelotinib (CYT387)], the nucleolar normality score is inactive: 0.979 (1 µM) and inactive: 1.06 (10 µM).

Take `Cc1ccc(C(=O)Nc2ccc(Oc3cc4cnn(C)c4cc3-c3cn[nH]c3)c(F)c2)c(=O)n1-c1ccc(F)cc1`: the nucleolar normality score was inactive: 0.937 (1 µM) and active: 0.82 (10 µM).

Regarding `O=C(/C=C/c1ccc(O)cc1)c1ccc(O)cc1O` [Isoliquiritigenin], the nucleolar normality score reads like this: (1 µM) inactive: 1.07; (10 µM) inactive: 1.06.

For `N#Cc1ccc(-c2csc(NN=C3CCCC3)n2)cc1` [Remodelin], the nucleolar normality score runs as follows: (1 µM) inactive: 1.02; (10 µM) inactive: 1.08.

Consider `CS(=O)(=O)OCCCCOS(C)(=O)=O` [Busulfan], for which the nucleolar normality score is inactive: 1.04 (1 µM) and inactive: 1.09 (10 µM).

In the case of `C=CC(C)(C)c1cc(C=CC(=O)c2ccc(O)cc2)c(OC)cc1O` [Licochalcone A], the nucleolar normality score was inactive: 1.01 (1 µM) and inactive: 1.07 (10 µM).

Regarding `CN1CCc2c(c3ccccc3n2Cc2ccc(C(=O)NO)cc2)C1` [Tubastatin A HCl], the nucleolar normality score is inactive: 1.07 (1 µM) and inactive: 1.11 (10 µM).

Turning to `CN1CCc2c(c3ccccc3n2Cc2ccc(C(=O)NO)cc2)C1` [Tubastatin A], the nucleolar normality score is, setting by setting: (1 µM) inactive: 0.978; (10 µM) inactive: 1.02.

As for `Cc1c(CN2CCN(C(=O)[C@H](C)O)CC2)sc2c(N3CCOCC3)nc(-c3cnc(N)nc3)nc12` [Apitolisib (GDC-0980, RG7422)], the nucleolar normality score was active: 0.564 (1 µM) and active: 0.425 (10 µM).

Regarding `CC(C)(CO)c1cc2cc(NC(=O)C3(c4ccc5c(c4)OC(F)(F)O5)CC3)c(F)cc2n1C[C@@H](O)CO`, the nucleolar normality score is inactive: 1.05 (1 µM) and inactive: 1.05 (10 µM).

For the compound `COc1cc2nccc(Oc3ccc(NC(=O)NC4CC4)c(Cl)c3)c2cc1C(N)=O` [Lenvatinib (E7080)], the nucleolar normality score was inactive: 0.945 (1 µM) and inactive: 1.05 (10 µM).

In the case of `COc1cc2nccc(Oc3ccc(NC(=O)NC4CC4)c(Cl)c3)c2cc1C(N)=O` [lenvatinib Mesylate], the nucleolar normality score was inactive: 1 (1 µM) and inactive: 1.07 (10 µM).

In the case of `c1nc2c(NC3CCCCC3)nc(Nc3ccc(N4CCOCC4)cc3)nc2[nH]1` [Reversine], the nucleolar normality score (1 µM) is inactive: 0.934 and the nucleolar normality score (10 µM) is active: 0.783.

`CNc1cc(-c2cccc(Cl)c2Cl)nc(N)n1`: the nucleolar normality score is inactive: 1.08 (1 µM) and inactive: 1.07 (10 µM).

Consider `COc1nc(OCc2cccc(-c3ccccc3)c2C)ccc1CNCCNC(C)=O` [BMS202 (PD-1/PD-L1 inhibitor 2)], for which the nucleolar normality score (1 µM) was inactive: 1.03 and the nucleolar normality score (10 µM) is inactive: 1.09.

Consider `O=C(Nc1ccncc1)c1cc([N+](=O)[O-])ccc1Cl`, for which the nucleolar normality score runs as follows: (1 µM) inactive: 1.08; (10 µM) inactive: 0.928.

For the compound `CC(C)(O)CNc1ncc(-c2ccnc(Nc3ccnc(Cl)c3)n2)c(CC2CC2)n1`, the nucleolar normality score is, setting by setting: (1 µM) inactive: 1.03; (10 µM) inactive: 1.02.

With `Cn1c(-c2ccccc2C(F)(F)F)nnc1C12CCC(c3noc(C4CC(F)(F)C4)n3)(CC1)CC2`, the nucleolar normality score is inactive: 0.977 (1 µM) and inactive: 1.01 (10 µM).

For `COc1cc2c(c(OC)c1OC)-c1c(cc(OC)c(OC)c1OC)C[C@H](C)[C@H](C)C2` [Schisandrin A], the nucleolar normality score runs as follows: (1 µM) inactive: 1.07; (10 µM) inactive: 1.09.

With `CCN1CCN(Cc2ccc(C(=O)Nc3ccc(C)c(Oc4ccc5c(c4)CC(=O)N5)c3)cc2C(F)(F)F)CC1`, the nucleolar normality score (1 µM) was inactive: 1 and the nucleolar normality score (10 µM) was inactive: 1.11.

As to `Cc1cc(CN2CCN(c3c(Br)cnc4nc(-c5ccc(N6CCN(C)CC6)cc5)[nH]c34)CC2)no1`, the nucleolar normality score runs as follows: (1 µM) inactive: 0.969; (10 µM) inactive: 0.937.

Turning to `O=C(Oc1cc(S(=O)(=O)c2ccccc2)ccc1[N+](=O)[O-])c1ccc(Cl)cc1`, the nucleolar normality score is, setting by setting: (1 µM) inactive: 0.935; (10 µM) inactive: 1.02.

With `COc1ccc(-n2c(SCCCN3C(=O)c4cccc5cccc(c45)C3=O)nnc2-c2ccncc2)cc1`, the nucleolar normality score by setting is: (1 µM) inactive: 0.927; (10 µM) inactive: 1.03.

Consider `Cc1cccc(CC(=O)N2CCc3c2ccc(-c2cn(C)c4ncnc(N)c24)c3F)n1`, for which the nucleolar normality score is, setting by setting: (1 µM) inactive: 1.03; (10 µM) inactive: 1.06.

`Cc1c(-c2cnccn2)ssc1=S` [Oltipraz]: the nucleolar normality score by setting is: (1 µM) inactive: 1.02; (10 µM) inactive: 1.02.

Regarding `CCn1c2ccccc2c2cc(CNCc3ccccc3OC)ccc21`, the nucleolar normality score is, setting by setting: (1 µM) inactive: 0.968; (10 µM) inactive: 0.998.

On to `C=CC(=O)N1CCCC(n2c(=O)n(-c3ccc(Oc4ccccc4)cc3)c3c(N)ncnc32)C1` (stereo not given) [ONO-4059 analogue], for which the nucleolar normality score is, setting by setting: (1 µM) inactive: 0.979; (10 µM) inactive: 0.988.

For `Cc1ccc(NC(=O)c2cccc(C(C)(C)C#N)c2)cc1Nc1ccc2ncn(C)c(=O)c2c1`, the nucleolar normality score by setting is: (1 µM) inactive: 1.03; (10 µM) inactive: 0.907.

As for `Clc1ccc(C(c2c[nH]c3ccccc23)c2c[nH]c3ccccc23)cc1`, the nucleolar normality score by setting is: (1 µM) inactive: 0.95; (10 µM) inactive: 0.959.

On to `CC(C)OC(=O)C1=CN(C(=O)c2ccc(F)c(F)c2)CC(C)(C)c2c1[nH]c1ccccc21` [Turofexorate Isopropyl (XL335)], for which the nucleolar normality score is, setting by setting: (1 µM) inactive: 0.988; (10 µM) inactive: 0.853.

For the compound `CN(CCNc1ccnc2cc(Cl)ccc12)CCNc1ccnc2cc(Cl)ccc12`, the nucleolar normality score reads like this: (1 µM) inactive: 1.01; (10 µM) inactive: 0.898.

For `Cc1ccc(F)c(NC(=O)Nc2ccc(-c3cccc4[nH]nc(N)c34)cc2)c1` [Linifanib (ABT-869)], the nucleolar normality score reads like this: (1 µM) inactive: 0.923; (10 µM) inactive: 1.07.

Regarding `Cc1[nH]nc(C(F)(F)F)c1Cc1sc2c(c1C(=O)N1C[C@](C)(O)CO1)c(=O)n(C)c(=O)n2C(C)C`, the nucleolar normality score reads like this: (1 µM) inactive: 0.956; (10 µM) inactive: 1.05.

For the compound `COc1cc2ncnc(Nc3cccc(Cl)c3)c2cc1OC` [AG-1478 (Tyrphostin AG-1478)], the nucleolar normality score by setting is: (1 µM) inactive: 1.05; (10 µM) inactive: 1.06.

Regarding `CS(=O)(=O)c1ccc(-c2nnc(/C=C/c3nnc(-c4ccc(C#N)cc4)o3)n2-c2ccccc2Cl)nc1`, the nucleolar normality score was inactive: 0.933 (1 µM) and inactive: 0.942 (10 µM).

Regarding `Cc1c(CN2CCC(Nc3ncnc4sc(CC(F)(F)F)cc34)CC2)ccc2[nH]c(C#N)cc12`, the nucleolar normality score is, setting by setting: (1 µM) inactive: 1.07; (10 µM) inactive: 1.01.

`NC(=O)c1ccc(I)c([N+](=O)[O-])c1` [Iniparib (BSI-201)]: the nucleolar normality score (1 µM) is inactive: 1.1 and the nucleolar normality score (10 µM) was inactive: 1.09.

`CN/C(=N\CCSCc1nc[nH]c1C)NC#N` [Cimetidine]: the nucleolar normality score (1 µM) was inactive: 1.03 and the nucleolar normality score (10 µM) is inactive: 1.09.

For `COc1ccc(C2=N[C@@H](c3ccc(Cl)cc3)[C@@H](c3ccc(Cl)cc3)N2C(=O)N2CCNC(=O)C2)c(OC(C)C)c1` [Nutlin-3], the nucleolar normality score is inactive: 0.961 (1 µM) and inactive: 1.04 (10 µM).

As for `NS(=O)(=O)c1ccc(NC(=S)N2CCN(CC=Cc3ccccc3)CC2)cc1`, the nucleolar normality score is inactive: 0.912 (1 µM) and inactive: 1.02 (10 µM).
